# From PubChem BioAssay (NCI)
#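 A five-concentration, 48-hour dose response in 96-well plates underlies each endpoint, interpolated linearly between surrounding concentrations. Abbreviation: GI50, concentration required for 50% inhibition of growth.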 Some entries of the source have several records that differ or are many. This list holds those alone. An entry can have further records. Records of one sample usually come from different ranges of test concentrations, not given here; a value can be the end of its range.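 Definition used: TGI = concentration required for complete inhibition of growth.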 Marks such as (2×) say how often a value occurs here.
# Assays:
# Experiment in all cases: NCI tumour cell line growth inhibition, 48 h
# OVCAR-8 ovarian = system: OVCAR-8 ovarian
# UACC-257 melanoma = system: UACC-257 melanoma
# NCI-H226 lung = system: NCI-H226 lung
# CCRF-CEM leukemia = system: CCRF-CEM leukemia
# MOLT-4 leukemia = system: MOLT-4 leukemia
# OVCAR-4 ovarian = system: OVCAR-4 ovarian
# LOX IMVI melanoma = system: LOX IMVI melanoma
# EKVX NSCLC = system: EKVX NSCLC
# OVCAR-3 ovarian = system: OVCAR-3 ovarian
# HOP-62 NSCLC = system: HOP-62 NSCLC
# 786-0 renal = system: 786-0 renal
# HCT-116 colon = system: HCT-116 colon
# SN12K1 renal = system: SN12K1 renal
# HCC-2998 colon = system: HCC-2998 colon
# COLO 205 colon = system: COLO 205 colon
# SK-MEL-28 melanoma = system: SK-MEL-28 melanoma
# SNB-78 CNS = system: SNB-78 CNS
# P388 leukemia = system: P388 leukemia
# U251 CNS = system: U251 CNS
# M19-MEL melanoma = system: M19-MEL melanoma
# SF-268 CNS = system: SF-268 CNS
# XF 498 CNS = system: XF 498 CNS
# DLD-1 colon = system: DLD-1 colon
# NCI-H460 lung = system: NCI-H460 lung
# SK-MEL-2 melanoma = system: SK-MEL-2 melanoma
# HOP-18 NSCLC = system: HOP-18 NSCLC
# DMS 273 small cell lung = system: DMS 273 small cell lung
# KM20L2 colon = system: KM20L2 colon
# SNB-75 CNS = system: SNB-75 CNS
# DU-145 prostate = system: DU-145 prostate
# MCF7 breast = system: MCF7 breast
# UO-31 renal = system: UO-31 renal
# PC-3 prostate = system: PC-3 prostate
# HL-60(TB) leukemia = system: HL-60(TB) leukemia
# SF-295 CNS = system: SF-295 CNS
# SF-539 CNS = system: SF-539 CNS
# HOP-92 NSCLC = system: HOP-92 NSCLC
# NCI-H522 lung = system: NCI-H522 lung
# MALME-3M melanoma = system: MALME-3M melanoma
# HCT-15 colon = system: HCT-15 colon
# IGROV1 ovarian = system: IGROV1 ovarian
# SNB-19 CNS = system: SNB-19 CNS
# DMS 114 small cell lung = system: DMS 114 small cell lung
# A549 NSCLC = system: A549 NSCLC
# RPMI-8226 leukemia = system: RPMI-8226 leukemia
# OVCAR-5 ovarian = system: OVCAR-5 ovarian
# NCI/ADR-RES ovarian = system: NCI/ADR-RES ovarian
# SW-620 colon = system: SW-620 colon
# SN12C renal = system: SN12C renal
# SK-MEL-5 melanoma = system: SK-MEL-5 melanoma
# K-562 leukemia = system: K-562 leukemia
# A498 renal = system: A498 renal
# HS 578T breast = system: HS 578T breast
# KM12 colon = system: KM12 colon
# ACHN renal = system: ACHN renal
# CAKI-1 renal = system: CAKI-1 renal
# NCI-H23 lung = system: NCI-H23 lung
# RXF 393 renal = system: RXF 393 renal
# SK-OV-3 ovarian = system: SK-OV-3 ovarian
# HT29 colon = system: HT29 colon
# UACC-62 melanoma = system: UACC-62 melanoma
structure (smiles),measurement,setting,value
CN1CCCN(CCNc2nccc(-c3c(-c4cccc(O)c4)nc4sccn34)n2)S1(=O)=O,GI50,OVCAR-8 ovarian,7 µM and 177 nM
same,TGI,OVCAR-8 ovarian,63.2 µM and 5.53 µM
same,TGI,UACC-257 melanoma,2.57 µM [1 test] and > 35.7 µM [mean of 2 tests]
COc1cc(C2c3cc4c(cc3[C@@H](Nc3ccc(N(C)C)cc3)[C@H]3COC(=O)C23)OCO4)cc(OC)c1O (some centres undefined),TGI,NCI-H226 lung,438 nM and 7.68 µM
same,TGI,CCRF-CEM leukemia,75 µM and 741 nM
same,TGI,MOLT-4 leukemia,872 nM and 13 µM
COC1C(O)CC(OC2CC(Oc3cc4cc5c(c(O)c4c(O)c3C)C(=O)[C@@H](OC3CC(OC4CC(OC6CC(C)(O)C(OC(C)=O)C(C)O6)C(O)C(C)O4)C(O)C(C)O3)[C@H]([C@H](OC)C(=O)[C@@H](O)[C@@H](C)O)C5)OC(C)C2OC(C)=O)OC1C (some centres undefined),TGI,OVCAR-4 ovarian,"0.474, 0.294, 13.9, 15 nM"
same,TGI,LOX IMVI melanoma,"0.134 nM, 51 nM, < 10.7 nM"
same,TGI,EKVX NSCLC,"0.0976, 0.642, 37.4, 58.5 nM"
same,TGI,OVCAR-3 ovarian,"0.0255 nM, 0.286 nM, 145 nM, < 46.4 nM"
same,TGI,NCI-H226 lung,"0.0174 nM, 1.96 nM [mean of 3 tests] and 10.8 nM [mean of 4 tests]"
same,TGI,HOP-62 NSCLC,"0.044 nM, 0.214 nM, 8.71 nM"
same,TGI,786-0 renal,2.05 nM [mean of 3 tests] and 115 nM [mean of 4 tests]
same,TGI,CCRF-CEM leukemia,"0.207, 0.661, 310, 35 nM"
same,TGI,HCT-116 colon,"7.44 nM, 9.49 µM, 2.66 µM"
same,TGI,SN12K1 renal,0.0317 nM [mean of 3 tests] and 79.4 nM [mean of 4 tests]
same,TGI,HCC-2998 colon,"0.0263 nM, 0.0745 nM, 4.13 nM, < 11 nM"
same,TGI,COLO 205 colon,0.103 nM [mean of 4 tests] and 0.00946 nM [mean of 5 tests] and 6.44 nM [mean of 6 tests]
same,TGI,SK-MEL-28 melanoma,"0.513 nM, 0.0732 nM, 6.1 nM"
same,TGI,SNB-78 CNS,> 84.4 µM [mean of 3 tests] and 418 nM [mean of 6 tests]
same,GI50,P388 leukemia,0.0129 nM [mean of 4 tests] and 5.02 nM [mean of 5 tests]
same,TGI,P388 leukemia,< 37.9 nM [mean of 2 tests] and 0.0845 nM [mean of 4 tests] and 123 nM [mean of 5 tests]
same,TGI,U251 CNS,"1.4 nM, 712 nM, 1.6 µM"
same,TGI,M19-MEL melanoma,0.0363 nM and 37.2 nM
same,TGI,SF-268 CNS,"0.362, 0.532, 227, 12.1 nM"
same,TGI,XF 498 CNS,0.00832 nM and 5.61 nM
same,TGI,DLD-1 colon,5.03 µM and 174 nM
same,TGI,NCI-H460 lung,"0.876, 0.308, 195, 116 nM"
same,TGI,SK-MEL-2 melanoma,"0.00501 nM, 0.0308 nM, 6.81 nM"
same,TGI,HOP-18 NSCLC,0.475 nM and 215 nM
same,GI50,DMS 273 small cell lung,0.00394 nM [mean of 4 tests] and 2.83 nM [mean of 5 tests]
same,TGI,DMS 273 small cell lung,0.0897 nM [mean of 4 tests] and 4.6 nM [mean of 5 tests]
same,TGI,KM20L2 colon,"0.365 nM, 249 nM, < 14 nM"
same,TGI,SNB-75 CNS,0.0685 nM [mean of 3 tests] and 0.0173 nM [mean of 4 tests] and 6.14 nM [mean of 6 tests]
same,TGI,DU-145 prostate,2.66 nM and 1.02 µM
same,TGI,MCF7 breast,0.233 nM and 1.6 µM
same,TGI,OVCAR-8 ovarian,"0.0251, 0.586, 24.5, 215 nM"
same,TGI,UO-31 renal,"0.188, 1.87, 510, 111 nM"
same,TGI,PC-3 prostate,0.898 nM and 12.3 nM
same,TGI,HL-60(TB) leukemia,"0.215, 0.163, 32.9, 20.3 nM"
same,TGI,SF-295 CNS,"0.0232 nM, 0.426 nM, 23.6 nM (2×)"
same,TGI,SF-539 CNS,"0.027 nM, 0.252 nM, 4.16 nM"
same,TGI,UACC-257 melanoma,0.143 nM [mean of 3 tests] and 0.0462 nM [mean of 4 tests] and 11.4 nM [mean of 6 tests]
same,TGI,HOP-92 NSCLC,"0.0307 nM, 0.172 nM, 8.32 nM, < 11.5 nM"
same,TGI,NCI-H522 lung,"0.179 nM, 0.0409 nM, 6.67 nM"
same,TGI,MALME-3M melanoma,"0.00564 nM, 0.0911 nM, 6.4 nM"
same,TGI,HCT-15 colon,"5.21 nM, 5.85 µM, 5.91 µM"
same,TGI,IGROV1 ovarian,"0.162 nM, 19.8 µM, 3.05 µM"
same,TGI,MOLT-4 leukemia,"0.0823, 0.159, 194, 121 nM"
same,TGI,SNB-19 CNS,"0.453 nM, 1.08 nM, 25 µM, 6.41 µM"
same,TGI,DMS 114 small cell lung,0.0977 nM and 6.28 nM
same,TGI,A549 NSCLC,"0.521 nM, 7.06 µM, 43.2 µM"
same,TGI,RPMI-8226 leukemia,"0.149, 0.151, 8.61, 367 nM"
same,TGI,OVCAR-5 ovarian,"0.696 nM, 55.2 nM, 14.1 nM"
same,TGI,NCI/ADR-RES ovarian,"0.692 nM, 1.71 nM, 11.6 µM, 39.5 µM"
same,TGI,SW-620 colon,"0.0265 nM, 9.41 µM, 2.6 µM"
same,TGI,SN12C renal,"1.12 nM, 460 nM, 3.7 µM"
same,TGI,SK-MEL-5 melanoma,"0.013 nM [mean of 3 tests] and 0.0258 nM, 7.89 nM [mean of 4 tests]"
same,TGI,K-562 leukemia,"0.299 nM, 0.621 nM, 1.38 µM, 4.53 µM"
same,TGI,A498 renal,"0.0228 nM, 0.0551 nM, 14.8 nM"
same,TGI,HS 578T breast,0.0725 nM and 18.4 nM
same,TGI,KM12 colon,1.01 nM [mean of 3 tests] and 0.0597 nM [mean of 4 tests] and 146 nM [mean of 6 tests]
same,TGI,ACHN renal,3.92 nM and 255 nM
same,TGI,CAKI-1 renal,"0.884, 1.97, 673, 26 nM"
same,TGI,NCI-H23 lung,"0.0249 nM, 0.213 nM [mean of 4 tests] and 196 nM [mean of 5 tests]"
same,TGI,RXF 393 renal,"0.0138 nM, 0.0238 nM, 5.14 nM"
same,TGI,SK-OV-3 ovarian,"2.39 nM, 4.14 µM, 8.78 µM"
same,TGI,HT29 colon,"0.557 nM, 611 nM, 1.08 µM"
same,TGI,UACC-62 melanoma,"0.0196 nM, 0.0349 nM, 4.7 nM"
